These are yes or no findings as the source states them, for the method shown. In cells and extracts the contact can be indirect. Some entries that bind do so weakly or less than the wild type. For part of these data: Where a sequence is shown, tags or fusion partners need not be part of it.
Columns and labels:
Experiment in all cases: co-IP
[1] = molecular target: Myc-MmsA (M. tuberculosis) (UniProt O53816)
[2] = molecular target: Myc-tagged human STING (human) (UniProt Q86WV6)
[3] = molecular target: T1, Myc-tagged murine STING (mouse) (UniProt Q3TBT3)
T1 sequence: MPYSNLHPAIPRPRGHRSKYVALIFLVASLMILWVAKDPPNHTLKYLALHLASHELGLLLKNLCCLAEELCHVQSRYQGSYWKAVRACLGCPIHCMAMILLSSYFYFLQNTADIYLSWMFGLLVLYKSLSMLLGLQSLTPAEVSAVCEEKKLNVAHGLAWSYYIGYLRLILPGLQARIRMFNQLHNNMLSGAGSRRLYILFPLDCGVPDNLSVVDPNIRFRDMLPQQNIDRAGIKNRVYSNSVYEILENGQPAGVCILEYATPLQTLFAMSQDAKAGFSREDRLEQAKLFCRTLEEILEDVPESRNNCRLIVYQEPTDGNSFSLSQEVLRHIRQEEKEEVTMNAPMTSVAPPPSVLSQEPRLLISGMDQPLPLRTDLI

Amino acid sequences for entries named in this document (tags omitted). A change or cut given only in a name is not applied to a line headed by its entry.
UniProt O53816: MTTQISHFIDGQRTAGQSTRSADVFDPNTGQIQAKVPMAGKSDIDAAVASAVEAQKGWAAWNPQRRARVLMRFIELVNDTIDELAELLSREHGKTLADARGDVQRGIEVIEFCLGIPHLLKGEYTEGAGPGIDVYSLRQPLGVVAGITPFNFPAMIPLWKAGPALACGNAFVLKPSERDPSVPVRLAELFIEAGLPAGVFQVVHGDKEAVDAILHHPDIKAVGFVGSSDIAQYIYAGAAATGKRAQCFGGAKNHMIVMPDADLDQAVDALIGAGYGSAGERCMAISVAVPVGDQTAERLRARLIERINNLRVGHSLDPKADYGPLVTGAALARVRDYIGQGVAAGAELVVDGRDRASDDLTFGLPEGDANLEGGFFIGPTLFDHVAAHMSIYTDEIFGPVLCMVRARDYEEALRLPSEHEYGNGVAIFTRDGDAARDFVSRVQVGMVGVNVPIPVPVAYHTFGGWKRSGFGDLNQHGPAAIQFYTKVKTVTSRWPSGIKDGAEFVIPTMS
UniProt Q86WV6: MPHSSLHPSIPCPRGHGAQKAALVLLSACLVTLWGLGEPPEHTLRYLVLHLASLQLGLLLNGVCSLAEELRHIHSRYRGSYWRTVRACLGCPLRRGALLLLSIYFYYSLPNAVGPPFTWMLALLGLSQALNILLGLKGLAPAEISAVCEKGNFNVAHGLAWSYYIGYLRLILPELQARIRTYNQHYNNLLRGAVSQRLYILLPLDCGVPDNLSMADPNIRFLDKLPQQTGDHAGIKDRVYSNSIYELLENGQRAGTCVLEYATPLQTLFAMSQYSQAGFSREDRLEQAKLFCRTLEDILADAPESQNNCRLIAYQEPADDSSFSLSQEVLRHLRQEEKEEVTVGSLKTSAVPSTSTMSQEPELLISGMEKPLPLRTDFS
UniProt Q7Z434: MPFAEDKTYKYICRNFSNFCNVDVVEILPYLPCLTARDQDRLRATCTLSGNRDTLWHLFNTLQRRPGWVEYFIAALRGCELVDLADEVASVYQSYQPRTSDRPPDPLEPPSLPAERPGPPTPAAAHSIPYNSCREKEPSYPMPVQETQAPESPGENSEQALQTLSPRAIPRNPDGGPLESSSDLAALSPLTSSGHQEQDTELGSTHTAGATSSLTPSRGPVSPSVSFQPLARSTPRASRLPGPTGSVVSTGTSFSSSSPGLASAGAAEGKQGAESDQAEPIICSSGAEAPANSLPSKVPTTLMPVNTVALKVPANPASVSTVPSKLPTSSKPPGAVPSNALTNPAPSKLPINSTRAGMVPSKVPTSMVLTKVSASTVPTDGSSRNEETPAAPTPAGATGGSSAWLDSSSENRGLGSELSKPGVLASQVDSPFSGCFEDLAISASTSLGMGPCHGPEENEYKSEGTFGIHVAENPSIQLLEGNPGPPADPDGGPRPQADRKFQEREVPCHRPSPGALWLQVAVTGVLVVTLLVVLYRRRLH
UniProt Q8N884: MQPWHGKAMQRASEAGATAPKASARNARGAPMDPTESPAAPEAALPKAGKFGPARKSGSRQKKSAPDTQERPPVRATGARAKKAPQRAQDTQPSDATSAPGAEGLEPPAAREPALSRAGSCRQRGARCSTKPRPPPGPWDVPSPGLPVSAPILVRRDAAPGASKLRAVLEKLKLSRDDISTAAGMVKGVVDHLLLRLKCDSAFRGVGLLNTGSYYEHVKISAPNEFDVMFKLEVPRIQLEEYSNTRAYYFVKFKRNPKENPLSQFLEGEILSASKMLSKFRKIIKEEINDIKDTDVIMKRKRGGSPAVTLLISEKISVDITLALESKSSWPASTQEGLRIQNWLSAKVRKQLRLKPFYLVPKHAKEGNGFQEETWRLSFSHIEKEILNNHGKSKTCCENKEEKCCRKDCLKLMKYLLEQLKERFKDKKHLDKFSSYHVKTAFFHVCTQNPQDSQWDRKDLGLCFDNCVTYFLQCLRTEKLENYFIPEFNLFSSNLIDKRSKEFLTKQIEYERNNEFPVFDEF

[4] = molecular target: Flag-MmsA^1-251aa (M. tuberculosis H37Rv) (UniProt O53816)
[5] = molecular target: M. tuberculosis Flag-MmsA (Rv0753c) (M. tuberculosis H37Rv) (UniProt O53816)
[6] = molecular target: Flag-MmsA^1-455aa (M. tuberculosis H37Rv) (UniProt O53816)

Row | Substance | binding [2] | binding [5] | also measured
1 | Flag-MAVS (from UniProt Q7Z434 1-540) |  |  | binding [1]: no binding
2 | Flag-MmsA^1-251aa (from UniProt O53816 1-251) (domain or fragment) | binds |  | 
3 | Flag-MmsA^1-455aa (from UniProt O53816 1-455) (domain or fragment) | binds |  | 
4 | Flag-cGAS (from UniProt Q8N884 1-522) |  |  | binding [1]: no binding
5 | M. tuberculosis Flag-MmsA (Rv0753c) (from UniProt O53816 1-510) | binds |  | binding [3]: binds
6 | Myc-p62 (human p62, encoded by SQSTM1) (from UniProt Q13501 1-440) |  | binds | binding [4]: no binding; binding [6]: binds
7 | Myc-tagged human STING (from UniProt Q86WV6 1-379) |  | binds | 
8 | STING^C-Region (human STING aa 191 to 379), Myc-tagged (from UniProt Q86WV6 191-379) (domain or fragment) |  | no binding | 
9 | STING^N-Region (human STING aa 1 to 190), Myc-tagged (from UniProt Q86WV6 1-190) (domain or fragment) |  | binds | 

— article PMC7733952
